US20190062399A1
Values joined by “and” are separate entries in the source; they are usually repeats but may differ in a detail not shown here. Equal entries are not always repeated.

Target: B7 protein (CD80 and/or CD86) on Daudi B cells
Test: cell-based or functional assay

EC50, human IL-2 promoter mediated luciferase activity in the in vitro potency bioassay (Jurkat T cells + Daudi B cells + anti-CD3): 0.0191 µg/mL and 0.0215 µg/mL and 0.0218 µg/mL
B1: CTLA4^A29YL104E-Ig (Fc fusion)
chain: MHVAQPAVVLASSRGIASFVCEYASPGKYTEVRVTVLRQADSQVTEVCAATYMMGNELTFLDDSICTGTSSGNQVNLTIQGLRAMDTGLYICKVELMYPPPYYEGIGNGTQIYVIDPEPCPDSDQ[not shown - human IgG1 Fc with changes]
modifications: here or on the partner: glycosylated: N-linked at Asn102, Asn134, Asn233 (numbering of SEQ ID NO:4); O-linked sites in the hinge
